The record followed here is the GPR68 mutational scans of Howard et al. (2025).

The least precise scores are not listed. The source holds two more conditions with little spread; they are left out. Read del as a deletion of the residues named and ins as an insertion between two positions. For part of these data: How much ogerin was present is not stated here.

B1: GPR68, Q15743 (parent)
chain: MGNITADNSSMSCTIDHTIHQTLAPVVYVTVLVVGFPANCLSLYFGYLQIKARNELGVYLCNLTVADLFYICSLPFWLQYVLQHDNWSHGDLSCQVCGILLYENIYISVGFLCCISVDRYLAVAHPFRFHQFRTLKAAVGVSVVIWAKELLTSIYFLMHEEVIEDENQHRVCFEHYPIQAWQRAINYYRFLVGFLFPICLLLASYQGILRAVRRSHGTQKSRKDQIQRLVLSTVVIFLACFLPYHVLLLVRSVWEASCDFAKGVFNAYHFSLLLTSFNCVADPVLYCFVSETTHRDLARLRGACLAFLTCSRTGRAREAYPLGAPEASGKSGAQGEEPELLTKLHPAFQTPNSPGSGGFPTGRLA

The variants in data set [1] derive from B1. Nature of the data set: cAMP reporter score (Enrich2 score, wild type = 0); higher = more signal; HEK293T, FACS bins.
The variants in data set [2] derive from B1. Nature of the data set: surface expression score (Enrich2 score, wild type = 0); higher = more signal; HEK293T, FACS bins.

In the case of Y320_P321insGS, the cAMP reporter score is 1.18 in data set [1] (pH 5.5); 0.03 in data set [1] (pH 6); 0.839 in data set [1] (pH 6, modulator: ogerin); 0.994 in data set [1] (pH 6.5, modulator: ogerin). For the same variant, the surface expression score in data set [2] was 0.552.

As to L322_G323insGS, the cAMP reporter score in data set [1] (pH 5.5) turned out to be 0.707; in data set [1] (pH 6), 0.067; in data set [1] (pH 6, modulator: ogerin), 1.05; in data set [1] (pH 6.5, modulator: ogerin) it was 0.161. In addition, the surface expression score in data set [2] came to 0.96.

For the variant Y320_P321insG, the cAMP reporter score in data set [1] (pH 5.5) was -0.408; in data set [1] (pH 6, modulator: ogerin), -0.273; in data set [1] (pH 6.5, modulator: ogerin), 0.305. The surface expression score in data set [2] was -1.51.

For A327_S328del, the cAMP reporter score in data set [1] (pH 5.5) amounted to 1.49; in data set [1] (pH 6), 0.757; in data set [1] (pH 6, modulator: ogerin) it was 1.58; in data set [1] (pH 6.5, modulator: ogerin) it was 1.61. Besides, the surface expression score in data set [2] came out at 1.2.

On to S328_G329del, for which the cAMP reporter score in data set [1] (pH 5.5) is 1.28; in data set [1] (pH 6) it was -0.105; in data set [1] (pH 6, modulator: ogerin) it was 1.16; in data set [1] (pH 6.5, modulator: ogerin), 0.145. For the same variant, the surface expression score in data set [2] was 0.145.

L322V: the cAMP reporter score in data set [1] (pH 5.5) was 0.601; in data set [1] (pH 6) it was -0.111; in data set [1] (pH 6, modulator: ogerin), 0.959; in data set [1] (pH 6.5, modulator: ogerin), 0.524. Further, the surface expression score in data set [2] amounted to 0.738.

Regarding L322I, the cAMP reporter score is -0.414 in data set [1] (pH 5.5); 0.067 in data set [1] (pH 6); 0.423 in data set [1] (pH 6, modulator: ogerin); -0.395 in data set [1] (pH 6.5, modulator: ogerin). Further, the surface expression score in data set [2] worked out at 0.51.

Take L322G: the cAMP reporter score in data set [1] (pH 5.5) is -0.03; in data set [1] (pH 6), 0.325; in data set [1] (pH 6, modulator: ogerin), -0.077; in data set [1] (pH 6.5, modulator: ogerin), -0.629. The surface expression score in data set [2] was found to be 0.316.

Take L322Y: the cAMP reporter score is 0.825 in data set [1] (pH 5.5); 0.157 in data set [1] (pH 6); 0.963 in data set [1] (pH 6, modulator: ogerin); 0.784 in data set [1] (pH 6.5, modulator: ogerin). The surface expression score in data set [2] is 0.129.

L322E: the cAMP reporter score in data set [1] (pH 5.5) is 0.599; in data set [1] (pH 6) it was -0.343; in data set [1] (pH 6, modulator: ogerin), 0.767; in data set [1] (pH 6.5, modulator: ogerin), -0.417. Further, in data set [2], the surface expression score was 0.318.

With L322M, the cAMP reporter score in data set [1] (pH 5.5) is 1.03; in data set [1] (pH 6), 1.4; in data set [1] (pH 6, modulator: ogerin), 0.695; in data set [1] (pH 6.5, modulator: ogerin), 0.216. Further, the surface expression score in data set [2] amounted to 0.683.

On to L322C, for which the cAMP reporter score in data set [1] (pH 5.5) is -0.47; in data set [1] (pH 6), 0.536; in data set [1] (pH 6, modulator: ogerin) it was -0.225; in data set [1] (pH 6.5, modulator: ogerin), 0.827. For the same variant, the surface expression score in data set [2] came to 0.396.

Consider L322W, for which the cAMP reporter score was 0.656 in data set [1] (pH 5.5); 1 in data set [1] (pH 6); 0.734 in data set [1] (pH 6, modulator: ogerin).

L322P: the cAMP reporter score in data set [1] (pH 5.5) is 0.542; in data set [1] (pH 6), 1.76; in data set [1] (pH 6, modulator: ogerin), -0.113; in data set [1] (pH 6.5, modulator: ogerin) it was 0.714. The surface expression score in data set [2] was determined as 0.349.

Take L322A: the cAMP reporter score in data set [1] (pH 5.5) is -0.382; in data set [1] (pH 6.5, modulator: ogerin), 0.677. Further, in data set [2], the surface expression score was 0.288.

Take L322Q: the cAMP reporter score in data set [1] (pH 5.5) was -0.075; in data set [1] (pH 6) it was -0.593; in data set [1] (pH 6, modulator: ogerin), 1.37; in data set [1] (pH 6.5, modulator: ogerin), -0.202. Moreover, the surface expression score in data set [2] came out at 0.491.

Turning to L322N, the cAMP reporter score in data set [1] (pH 5.5) worked out at 1.27; in data set [1] (pH 6), 0.22; in data set [1] (pH 6, modulator: ogerin) it was 1.52; in data set [1] (pH 6.5, modulator: ogerin), 0.79. Also, in data set [2], the surface expression score worked out at 1.2.

As for L322H, the cAMP reporter score is 0.704 in data set [1] (pH 5.5); -0.214 in data set [1] (pH 6); 1.35 in data set [1] (pH 6, modulator: ogerin); 0.885 in data set [1] (pH 6.5, modulator: ogerin). The surface expression score in data set [2] was determined as 0.902.

As to L322R, the cAMP reporter score in data set [1] (pH 5.5) is -0.213; in data set [1] (pH 6) it was 2.26; in data set [1] (pH 6, modulator: ogerin) it was -0.28. Besides, in data set [2], the surface expression score was 0.003.

L322K: the cAMP reporter score turned out to be 1.31 in data set [1] (pH 5.5); 1.7 in data set [1] (pH 6); 1.49 in data set [1] (pH 6, modulator: ogerin); 0.863 in data set [1] (pH 6.5, modulator: ogerin).

As to L322F, the cAMP reporter score was -0.119 in data set [1] (pH 5.5); -0.507 in data set [1] (pH 6); 0.287 in data set [1] (pH 6, modulator: ogerin); -0.508 in data set [1] (pH 6.5, modulator: ogerin). Besides, the surface expression score in data set [2] was -0.212.

Turning to L322D, the cAMP reporter score was 0.365 in data set [1] (pH 5.5); -0.479 in data set [1] (pH 6); -0.068 in data set [1] (pH 6, modulator: ogerin); 0.255 in data set [1] (pH 6.5, modulator: ogerin). Besides, the surface expression score in data set [2] is 0.185.

On to L322S, for which the cAMP reporter score in data set [1] (pH 5.5) was 1.33; in data set [1] (pH 6) it was -0.882; in data set [1] (pH 6, modulator: ogerin), 0.768; in data set [1] (pH 6.5, modulator: ogerin), 0.147. Also, the surface expression score in data set [2] was found to be 0.261.

Regarding P321_L322del, the cAMP reporter score in data set [1] (pH 5.5) turned out to be 0.482; in data set [1] (pH 6) it was 0.288; in data set [1] (pH 6, modulator: ogerin), 1.1; in data set [1] (pH 6.5, modulator: ogerin), 0.666. In addition, the surface expression score in data set [2] was 0.578.

Regarding G329_K330insG, the cAMP reporter score in data set [1] (pH 5.5) was 0.769; in data set [1] (pH 6), 0.337; in data set [1] (pH 6, modulator: ogerin), 0.852; in data set [1] (pH 6.5, modulator: ogerin), 0.302. Besides, the surface expression score in data set [2] came out at 0.715.

In the case of A324_P325insGS, the cAMP reporter score in data set [1] (pH 5.5) amounted to 0.502; in data set [1] (pH 6), 0.766; in data set [1] (pH 6, modulator: ogerin), 0.841; in data set [1] (pH 6.5, modulator: ogerin), 0.754. For the same variant, in data set [2], the surface expression score worked out at 0.452.

On to A327del, for which the cAMP reporter score stood at 0.442 in data set [1] (pH 5.5) and 0.867 in data set [1] (pH 6, modulator: ogerin). Also, the surface expression score in data set [2] amounted to 0.725.

Consider A324_P325insG, for which the cAMP reporter score in data set [1] (pH 5.5) is -0.034; in data set [1] (pH 6), 1.38; in data set [1] (pH 6, modulator: ogerin) it was 0.703; in data set [1] (pH 6.5, modulator: ogerin), 1.63. For the same variant, the surface expression score in data set [2] is -1.03.

With G323K, the cAMP reporter score in data set [1] (pH 5.5) was 0.638; in data set [1] (pH 6), 0.483; in data set [1] (pH 6, modulator: ogerin) it was 0.521; in data set [1] (pH 6.5, modulator: ogerin) it was -0.122. For the same variant, the surface expression score in data set [2] is -0.016.

With G323I, the cAMP reporter score is -0.637 in data set [1] (pH 5.5); -1.3 in data set [1] (pH 6); -0.873 in data set [1] (pH 6, modulator: ogerin); -0.525 in data set [1] (pH 6.5, modulator: ogerin). Also, the surface expression score in data set [2] was -1.57.

For the variant G323P, the cAMP reporter score in data set [1] (pH 5.5) was 0.171; in data set [1] (pH 6) it was -0.445; in data set [1] (pH 6, modulator: ogerin), 0.15; in data set [1] (pH 6.5, modulator: ogerin) it was -0.211. The surface expression score in data set [2] worked out at 0.163.

For G323F, the cAMP reporter score in data set [1] (pH 5.5) is -0.161; in data set [1] (pH 6) it was -1.65; in data set [1] (pH 6, modulator: ogerin) it was -0.472; in data set [1] (pH 6.5, modulator: ogerin) it was 0.006.
